Reference: the RNAGym collection of RNA variant scans (doi:10.7554/elife.90254)
The source gives no read counts; variants with many changes may rest on few reads.

B1: LINE1-full (parent)
chain: UACGUAGGUGGUUUUCCCCUGAUAGUGCUAAGGGGGCCUGGAAGUUUGGACUGGGCAGAGCUCAACACAGCGUGGCAAAGUGGCUGUGGCUAGACUGCCUCUCUGGAUUCCUCGUCACUCAGCAGGGCAUCUCUGAGAGAAAUGCC

Variants of: B1
Test: self-cleavage, relative activity (ratio to wild type); higher = more cleavage; in vitro, sequencing; the parent is a self-cleaving ribozyme

Variant | self-cleavage
UACGUAGGUGGUUUUCCCCUGAUAGUGCUAAGGGGGCCUGGGAGUUUGGACUGGGCAGAGCUCAACACAGCGUGGCGAAGUGGCUGUGGCUAGACUGCCUCUCUGGAUUCCUCGUCACUCAGCAGGGCAUCUCUGAGAGCAAUGCC [A42G A77G A140C] | 2.85
UACGUAGGUGGUUUUCCCCCGAUAGUGCUAAGGGGGCCUGGAAGUUUGGACUGGGCAGAGCUCAACACAGCGUGGCUAAGUGGCUGUGGCUAGACUGCCUCUCUGGAUUCCUCGUCACUCAGCAGGGCAUCCCUGAGAGAAAUGCC [U20C A77U U132C] | 2
UACGUAGGUGGUUUACCCCCGAUAGUGCUAAGGGGGCCUGGAAGUUUGGACUGGGCAGAGCUCAACACAGCGUGGCAAAGUGGCUGUGGCUAGACUGCCUCUCUGGAUUCCUCGUCACUCAGCAGGGCAUCUCUGAGGGAAAUGCC [U15A U20C A138G] | 2.26
UACGUAGGAGGUUUUCCCCUGAUAGUGCUAAGGGGGCCUGGAAGUUUGGACUGGGCAGAGCUCAACACAGCGUGGCAAGGUGGCUGUGGCUAGACCGCCUCUCUGGAUUCCUCGUCACUCAGCAGGGCAUCUCCGAGAGAAAUGCC [U9A A79G U96C U134C] | 0
UACGUAGGUGGUUUUCCCCUGAUUGUGCUAAGGGGGCCUGGGAGUUUGGACUGGGCAGAGCUCAACACAGCGUGGCAAAGUGGCUGUGGCUAGACUGCCUCUCUGGAUUCCUCGUCACUCAGCAGGGCAUCUCUGAGGGAAAUGCC [A24U A42G A138G] | 0.66
UAAGUAGGUGGUUUUCCCCUGAUAGUGCUAAGGGGGCCUGGAAGUUUGGACUGGGCAGGGCUCAACACAGCGUGGCAAAGUGGCUGUGGCUAGACUGCCUCUCUGGAUUCCUCGUCACUCAGCAGGUCAUCUCUGAGAGUAAUGCC [C3A A59G G127U A140U] | 0.12
UACGUAGGCGGUUUUCCCCUGAUAGUGCAAAGGGGGCCAGGAAGUUUGGACUGGGCAGAGCGCAACACAGCGUGGCUAAGUGGCUGUGGCUAGACUGCCUCUCUGGAUUCCACGUCACUCAGCAGGGCAUCUCUGAGAGAAAUGCC [U9C U29A U39A U62G A77U U112A] | 0.27
UGCGUAGGUGGUUUUCCCCUGAUAGUGCUAAGGGGGCCUGGUAGUUUGGACUGGGCAGAGCUCAACACAGCGUGGCAAAGUGGCUGUGGCUAGACUGCCUCUCUGGAUUCCUCGUCACUCUGCAGGGCAUCUCUGAGAGAAAUGCC [A2G A42U A121U] | 0.61
UACGCAGGUGGUUUUCCCCUGAUAGUGCUGAGGGGGCCUGGAAGUUUGGACUGGGCUGAGCUCAACACAGCGUGGCAAAGUGGCUGUGGCUAGACUGCCUCUCUGGAUUCCUCGUCACUCAGCAGGGCAUCUCUGAGAGAAAUGCC [U5C A30G A57U] | 0.37
UACGUAGGUGGUUUUCCCCUGAUAGAGCUAAGGGGGCCUGGAGGUUUGGACUGGGCAGAGCUCAACACAGCGCGGCAAAGUGGCUGUGGCUAGACUGCCUCUCUGGAUUCCUCGUCACUCAGCAGGGCAACUCUGAGAGAAAUGCC [U26A A43G U73C U130A] | 0.45
UACGUAGGUGGUUUUCCCCUGAUAGUGCUAAGAGGGCCUGGAAGUUUGGACUGGGCAGAGCUCAACACAGCGUGGCAAAGUGGCUGUGGCUAGACUGCCUCUCUGGAUUCCUCGUCACUCAGCGGGGCAUCUCUGUGAGAAAUGCC [G33A A124G A136U] | 1.53
UACGUAGGUGGCUUUCCCUUGAUAGUGCUGAGGGGGCCUGGAAGUUUGGACUGGGCAGAGCUCAACACAGCGUGGCAAAGUGGCUGUGGCUAGACUGCCUCUCUGGAUUCCUCGUCACUCAGCAGGGCACCUCUGAGAGAAAUGCC [U12C C19U A30G U130C] | 1.06
UACGUAGGAGGUUUCCCCCUGAUAGUGCUAAGGGGGCCAGGAAGUUUGGACUGGGCAGAGCUCAACACAGCGUGGCAAAGUGGCUGUGGCUAGACUGCCUCUCUGGAUUCCUCGUCACUCAGCAGGGCAUCUCUGAGAGAAAUGCC [U9A U15C U39A] | 0.77
UACGUAGGCGGUUUUCCCCUGAUAGUGCUAAGGGGGCCUGGAAGUUUGGACUGGGCAGAGCUCAACACAGCGUGGCAAAGUGGCUGUGGCUAGACUGCCUCUCUGGAUUCCUCGACACUCAGCAGGGCAUCUCUGAGAGAAACGCC [U9C U115A U143C] | 1.44
UACGUAGGUGGUUUUCCCCAGAUAGUGCUAAGGGGGCCUGGAAGUUUGGACUGGGCAGAGCUCAACACAGCGUGGCAAAGUGGCCGUGGCUAGACUGCCUCUCUGGAUUCCUCGUCACUCAGCAGGGCAUCUCCGAGAGAAAUGCC [U20A U85C U134C] | 0
UACGUAGGUGGUUCUCCCCUGAUAGCGCUAAGGGGGCCUGGAAGUUUGGACUGGGCAGAGCUCUACACAGCGUGGCAAAGUGUCUGUGGCUAGACUGCCUCUCUGGAUUCCUCGUCACUCAGCAGGGCAUCUCUGAGAGAGAUGCC [U14C U26C A64U G83U A141G] | 0.46
UACGUAGGUGGUCUUCCCCUGAUAGUGCUAAGGGGGCCUGGAAGUUUGGACUGGGCAGAGCUCAACACAGCGUGGCAAAGUGGCUGUGGCUAGACUGCUUCUCUGGAUUCCUCGUCACUCAGCAGGGCAUCUCUGGGAGAAAUGCC [U13C C99U A136G] | 0.8
UACGUAGGUGGUUUUCCCCUGAUAGUGCUAAGGGGGCCUGGAAGUUAGGACUGGGCAGAGCUCAUCACAGCGUGGCAUAGAGGCUGUGGCUAGACUGCCUCUCUGGAUACCUCGUCACUCAGCAGGGCAUCUCUGAGAGGAAUGCC [U47A A65U A78U U81A U109A A140G] | 0.12
UACGUAGGUGGUUUUCCCCCGAUAGUGCUAAGGGGGCCUGGAAGUUUGGACUGGGCAGAGCUCAACACAGCGUUGCAGAGUGGCUGUGGCUAGACUGCCUCUCUGGAUUCCUCGUCACUCAGCAGGGCAUCUCUGAGAGAAAUGCC [U20C G74U A78G] | 1.86
UACGUAGGUGGUUUUCCCCUGAUAGUGCUAAGGGGGCCUGGAAGUUUGGACUGGGCAGAGCUCAACACAGCGUGGCAAGGUGGCUGUGGCUAGGCUGCCUCUCUGGAUUCCUCGUCACUCAGCAGGGCGUCUCUGAGAGAAAUGCC [A79G A94G A129G] | 0.77

Variant | self-cleavage
UACGUAGGUGGUUCUCCCCUGAUAGUGCUAAGGGGGCCUGGAAGUUUGGACUGGGCAGGGCUCAGCACAGCGUGGCAAAGUGGCUGUGGCUAGACUGCCUCUCUGGAUUCCUCGUCACUCAGCAGGGCAUCUCUGAGAGAGAUGCC [U14C A59G A65G A141G] | 0
UACGUGGGUGGUCUUCCCCUGAUAGUGCUAAGGGGGCCUGGAAGUUUGGACUGGGCAGAGCUCAACACAGCGUGGCAAAGUGGCUGUGGCUAGACUGCCUCUCUGGAUUCCUCGUCACUCAGCAGGGCAUCUCUGAGAGGAAUGCC [A6G U13C A140G] | 1.01
UACGUAGGUGGUUUUCCCCUGAUAGUGCUAAGGGGGCCUGGAAGUCUGGACUGGGCAGAGCUCAACACAGCGUGGCAGAGUGGCUGCGGCUAGACUGCCUCUCUGGAUUCCUCGUCACUCAGCAGGGCAUCUCUGAGAGAAAUGCC [U46C A78G U87C] | 0
UACGUAGGUGGUUUUCCCCUGAUAGUGCUAAGGGGGCCUGGAAGCUUGGACUGGGCAGAGCUAAACACAGCGUGGCAAAGUGGCUGUGGCUAGACUGCCUCUCUGGAUUCCUCGUCACUCAGCAAGGCAUCUCUGAGAGAAAUGCC [U45C C63A G125A] | 0.04
UACGUAGGUGGUUCUCCCCUGAUAGUGCUAAGGGGGCCUGGAAGUUUGGACUGGGCAGAGCUCAACACAGCGAGGCAAAGCGGCAGUGGCUAGGCUGCCUCCCUGGAUUCCUCGUCACUCAGCAGGGCAUCUCUGAGAGAAAUGCC [U14C U73A U81C U85A A94G U102C] | 0
UACGUAGGUGGUUUUCCCCUGAUAGUGCUAAGGGGGCCUGGAAGUUUGGACUGGGCAGAGCUCAACACAGCGUGGCAAAGAGGCUGUGGCUAGACUGCCUCUCUGGAUCCCUCGUCACUCAGCACGGCAUCUCUGAGAGAAAUGCC [U81A U109C G125C] | 2.67
UACGUAGGUGGUUUUCCCCCGAUAGUGCUAAGGGGGCCUGGAAGUUUGGACUGGGCAGGGCUCAACACAGCGUGGCAAAGUGGCUGUGGCUAAACUGCCUCUCUGGAUUCCUCGUCACUCAGCAGGGCAUCUCUGAGAGAGAUGCC [U20C A59G G93A A141G] | 0.12
UACGUAGGUGGUUUUCCCCUGAUAGUGCUAAAGGGGCCUGGAAGUUUGGACUGGGCAGAGCUCAACACAGCGUGGCGAAGUGGCUGUGGCUAGACUGCCUCUCUGGAUUCCUCGUCACUCAGCAGGGCAUCUCUGAGUGAAAUGCC [G32A A77G A138U] | 1.41
UACGUAGGUGGUUUUCCCCUGAUAGUGCCAAGGGGGCCCGGAAGUAUGGACUGGGCAGAGCUCAACACAGCGUGGCAAAGUGGCUGUGGCUAGACUGCCUCUCUGGAUUCCUCGUCACUCAGCAGGGCAUCUCUGAGAGAAAUGCU [U29C U39C U46A C146U] | 1.03
UACGUAGGUGGUUUUCCCCUGAUAGUGCUAAGGGGGCCUGGGAGUUUGGACUGGGCAGAGUUCAACACAGCGUGGCAAAGCGGCUGUGGCUAGACUGCCUCUCUGGAUUCCUCGUCACUCAGCAGGGCAUCUCUGAGAGAAAUGCC [A42G C61U U81C] | 0.05
UACGUAGGUGGUUUUCCCCUGAUAGUGCUAAGGGGGCCUGGAAGUUUGGACUGGGCAGAGCUCAACACAGCACGGCAAAGUGGCUGUGGCUAGACUGCCUCUCUGGAUUCCUCGUCACUCAGCAGGGCAUCUCUGAGAGAAUUGCC [G72A U73C A142U] | 1.42
UACGUAGGUGGUUUUCCCCUGAUAGUGCUAAGGGGGCCUGGAAGUUUGGACUGGGCAGAGCCCAACACAGCGUGGCAAAGUGGCUGUGGCUAGACGGCCUCUCUGGAUUCCUCGUCACUCAGCAGGGCACCUCUGAGAGAAGUGCC [U62C U96G U130C A142G] | 0
UACGUAGGUGGUUUUCCCCAGAUAGUGCUAAGGGGGCCUGGAAGACUGGACUGGGCAGAGCUCAACACAGCGUGGCAAAGUGGCUGUGGCUAGACUGCCUCUCUGGAUUCCUCGUCACUCAGCAGGGCAUCUCUGAGAGAAAUGCC [U20A U45A U46C] | 1.19
UGCGUAGGUGGUUUUCGCCUGAUAGUGCUAAGGGGGCCUGGAAGUUUGGACUGGGCAGAGCUCAACUCAGCGUGGCGAAGUGGCUGUGGCUAGACUGCCUCUCUGGAUUCCUCGUCACUCAGCAGGGCAUCUCUGAGAGAAAUGCC [A2G C17G A67U A77G] | 0.18
UACGUAGGUGGUUUUCCCCUGAUAGUGCUAAGGGGGCCUGGAAGUUUGGACUGGGCAGAGCUCAACACGGCGUGGCAAAGUGGCUGUGGCCAGACUGCCUCACUGGAUUCCUCGUCACUCAGCAGGGCAUCUCUGAGAGAAAUGCC [A69G U91C U102A] | 0.26
UACGUAGGUGGUUCUCCCCUGAUAGUGCUAAGGGGGCCUGGAAGUUUGGACUGGGCAGAGCUCAACACAGCGUGGCAAAGUGGCCGUGGCUAGACAGCCUCUCUGGAUUCCUCGUCACUCAGCAGGGCGUCUCUGAGAGAAAUGCC [U14C U85C U96A A129G] | 0.12
CACGUAGGUGGUUUUCCCCUGAUAGUGCUAAGGGGGCCUGGAAGUUUGGACUGGGCAGAGCUCAGCACAGCGUGGCAAAGUGGCUGUGGCUAGACUGCCUCUCUGGAUUCCUCGUCACUCGGCAGGGCAUCUCUGAGAGAAAUGCC [U1C A65G A121G] | 0.38
UACGUAGGUGGUUUUCCCCUGAUAGUGCUAAGGGGGCCUGGAAGUUUGGACUGGGCAGAGCUCAACACAGCGUGGCGAAGUGGCAGUGGCUAGACUGCCUCUCUGGAUUCCUCGUCACUCAGCAGGGCAUCUCUGAGAGAAGUGCC [A77G U85A A142G] | 0.11
UACGUAGGUGGUUUUCCCCUGAUAGUGCUAAGGGGGCCUGGAAGUUUGGACUGGGCAGAGCUCAACACAGCGUGGCAAAGUGGCUGUGGCUAGACUGCCUCUCUGGGUUCCUCGUCACUCAGCAGGGCAUCCCUGAGAGUAAUGCC [A107G U132C A140U] | 1.06
